# Reference: PMC4336329 (PLoS ONE, 2015)
# Among all 310,000 compounds or so, about 14,000 (4.5%) showed an effect of 50% or more. The effect is printed as a negative number. The list shows a part of the results.
# Target: human ether-à-go-go-related gene (hERG) potassium channel (human, UniProt Q12809)
# Experiment: primary screen, population patch clamp on CHO cells stably expressing hERG
# 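Further: peak tail current of the secondary pulse compared with the same well before compound.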
# Sequence of human ether-à-go-go-related gene (hERG) potassium channel (Q12809 whole entry, looked up): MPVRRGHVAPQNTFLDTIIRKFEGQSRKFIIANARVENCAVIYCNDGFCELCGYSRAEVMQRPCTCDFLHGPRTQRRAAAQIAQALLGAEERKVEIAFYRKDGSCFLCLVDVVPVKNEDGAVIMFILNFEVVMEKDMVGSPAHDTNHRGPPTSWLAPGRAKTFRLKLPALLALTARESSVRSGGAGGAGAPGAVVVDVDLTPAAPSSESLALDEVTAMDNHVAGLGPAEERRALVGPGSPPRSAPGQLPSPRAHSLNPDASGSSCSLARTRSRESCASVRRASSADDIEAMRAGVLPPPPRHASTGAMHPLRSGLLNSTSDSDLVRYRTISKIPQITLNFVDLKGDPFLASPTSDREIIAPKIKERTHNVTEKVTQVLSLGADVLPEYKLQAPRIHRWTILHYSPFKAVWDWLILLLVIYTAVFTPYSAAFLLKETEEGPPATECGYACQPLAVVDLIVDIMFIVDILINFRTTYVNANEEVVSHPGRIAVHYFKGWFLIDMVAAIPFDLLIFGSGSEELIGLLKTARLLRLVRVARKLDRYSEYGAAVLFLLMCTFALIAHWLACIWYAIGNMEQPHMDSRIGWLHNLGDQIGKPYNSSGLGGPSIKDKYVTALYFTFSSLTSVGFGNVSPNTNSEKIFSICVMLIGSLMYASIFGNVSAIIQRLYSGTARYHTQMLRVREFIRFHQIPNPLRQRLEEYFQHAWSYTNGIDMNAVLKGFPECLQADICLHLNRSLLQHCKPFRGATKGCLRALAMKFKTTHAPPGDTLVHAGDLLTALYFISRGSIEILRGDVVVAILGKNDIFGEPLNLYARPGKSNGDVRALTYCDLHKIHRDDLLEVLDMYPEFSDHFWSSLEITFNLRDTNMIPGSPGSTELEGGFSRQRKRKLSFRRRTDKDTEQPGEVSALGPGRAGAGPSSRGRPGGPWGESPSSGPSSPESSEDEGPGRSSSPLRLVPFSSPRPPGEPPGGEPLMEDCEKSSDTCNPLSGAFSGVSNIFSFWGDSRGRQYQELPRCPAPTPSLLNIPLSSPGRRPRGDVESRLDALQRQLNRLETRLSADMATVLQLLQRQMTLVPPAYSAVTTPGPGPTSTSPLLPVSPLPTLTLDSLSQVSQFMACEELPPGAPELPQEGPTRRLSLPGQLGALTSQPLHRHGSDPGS
row,SMILES,"hERG current change (%, negative = inhibition) at 10uM"
1,Cc1cccc(C(=O)NCc2nnc(SCC(=O)Nc3nnc(C)s3)n2C)c1,1.37%
2,OCC1(CCCc2ccccc2)CCN(Cc2ccc(F)cc2)CC1,-72.9%
3,Cc1ccc(C2NC(=O)c3c(sc4c3CCN(C)C4)N2)o1 (stereo not drawn),-23.4%
4,C[n+]1ccccc1N1CCN(c2ccccc2Cl)CC1.[I-],-7.69%
5,O=C(OCC(=O)N1CCCC1)c1cncc(Br)c1,22.6%
6,O=C(COC(=O)c1cncc(Br)c1)NCc1ccc2c(c1)OCO2,4.54%
7,Cc1ccc(NC(=O)c2ccc(-c3nn(C)c(=O)c4ccccc34)cc2)c(C)c1,-42.4%
8,CCC(Oc1ccc(C)cc1)C(=O)Nc1ccc(S(=O)(=O)Nc2nccs2)cc1 (stereo not drawn),3.46%
9,O=C(O)CNC(=O)CCn1nnc2ccccc2c1=O,6.5%
10,CCCCN(CC)Cc1ccc(CNC(=O)Nc2ccc(OCC)cc2)o1,-15.1%
11,CC(=O)Nc1ccc(C2=NN(c3ccccc3)C(c3cccs3)C2)cc1 (stereo not drawn),7.7%
12,CCCN1CCC(NC23CC4CC(CC(C4)C2)C3)CC1,22.1%
13,O=C(NCc1ccccn1)c1cc(-c2ccc(Cl)cc2)nc2ccccc12,-30.9%
14,COC(=O)Nc1ccc(S(=O)(=O)NCc2ccccn2)cc1,4.31%
15,N#Cc1c(NC(=O)C2CC(c3ccccc3O)=NO2)sc2c1CCC2 (stereo not drawn),5.45%
16,COc1ccc(S(=O)(=O)NCC2CCCN(Cc3ccccc3Cl)C2)cc1 (stereo not drawn),-37.9%
17,O=C(NCC1CC1)NC(=O)c1c(F)cccc1Cl,13.4%
18,Nn1c(SCC(=O)Nc2ccc(F)cc2)nnc1-c1ccccn1,-53.6%
19,Cc1cc(=O)c2cc(Br)ccc2[nH]1,8.12%
20,Cn1c(NC(=O)CC2CCCCC2)cc(=O)n(C)c1=O,-15.4%
21,CCOc1ccc(NC(=O)C(C)Sc2nnc(C)n2C)cc1 (stereo not drawn),-7.86%
22,CC(=O)CCc1c(C)[nH]c2ccc(NC(C)=O)cc2c1=O,11.9%

row,SMILES,"hERG current change (%, negative = inhibition) at 10uM"
1,COc1ccc(Cc2nc3ccc(C(=O)NCCSC)cc3o2)cc1,6.36%
2,O=C(Nc1ccc(C(=O)N2CCN(c3ccccc3)CC2)cc1)C1=CSCCO1,-39.8%
3,Cc1cccc(NC(=O)C2CCN(C(=O)[C@@H]3Cc4ccccc4CN3)CC2)c1,-67.2%
4,Cc1ccc(CN(C(=O)c2csnn2)C(C(=O)NC2CCCC2)c2ccc(C)o2)cc1 (stereo not drawn),1.37%
5,C[N+](C)(CCOc1ccccc1)Cc1ccccc1.O=C(O)c1cc2ccccc2c(Br)c1[O-],3.81%
6,Cc1ccc(C)c(CN2C(=O)C3CCCN3c3ccc(S(=O)(=O)N4CCOCC4)cc32)c1 (stereo not drawn),13.1%
7,O=C(Nc1ccccc1)N(C1=NCCC1)c1ccc(OC(F)F)cc1,-33.1%
8,O=C(NCc1ccc(F)cc1)c1cccc(NC2=NC3CS(=O)(=O)CC3S2)c1 (stereo not drawn),-0.333%
9,COc1ccc(-c2nc3c(c(=O)n(C)c(=O)n3C)n2CC2CC(c3ccccc3)=NO2)cc1OC (stereo not drawn),-27.8%
10,COc1ccc2[nH]cc(CCNS(=O)(=O)c3ccc(NC(C)=O)cc3)c2c1,14.5%
11,Cc1ccccc1S(=O)(=O)Cc1ccc(C(=O)NC2CC2)o1,13.7%
12,CC(NCC(O)COc1ccc(S(=O)(=O)N2CCOCC2)cc1)c1ccccc1 (stereo not drawn),-1.23%
13,CCOC(=O)/C(N=Nc1sc(C(=O)OCC)c(C)c1C(=O)OCC)=C(\C)O,-8.97%
14,COc1cccc(NC(=S)NNC(=O)C(C)n2nc(C)c([N+](=O)[O-])c2C)c1 (stereo not drawn),15.3%
15,COC(=O)c1oc2ccc(Cl)cc2c1NC(C)=O,1.43%
16,CN1CCN(c2cc3c(cc2F)c(=O)c(C(=O)O)cn3CCF)CC1,7.88%
17,CCCN(CC(=O)Nc1ccccc1C)C(=O)c1ccc2[nH]c3c(c2c1)CC(C)CC3 (stereo not drawn),-29.3%
18,COc1ccc(-n2nc3cc(C)c(N)cc3n2)cc1Cl,6.55%
19,CCc1nc(NCC2CCCN2CC)c2nnn(Cc3ccccc3F)c2n1 (stereo not drawn),-54.2%
20,CCn1c(SCC(=O)Nc2ccc(N3CCOCC3)cc2)nnc1-c1ccc(OC)cc1,-14.8%
21,O=[N+]([O-])c1cccc(S(=O)(=O)NCCCn2ccnc2)c1,-29.5%
22,Cc1oc(-c2cccc(Cl)c2)nc1CN1CCC(C(=O)N2CCN(c3ccccn3)CC2)CC1,-68.5%

row,SMILES,"hERG current change (%, negative = inhibition) at 10uM"
1,Cc1cc(C)cc(NC(=O)c2ccc(S(=O)(=O)NCc3cccnc3)cc2)c1,-8.3%
2,CC(=O)Nc1cccc(NC(=O)CSc2ccc(-c3cccnc3)nn2)c1,7.43%
3,COC(=O)C(Cc1c[nH]c2ccccc12)NC(=O)c1ccccc1Br (stereo not drawn),18.7%
4,COc1ccc(-c2cc(C(=O)N3CCN(C(=O)c4ccccc4F)CC3)[nH]n2)cc1,1.84%
5,Cc1ccc(N(Cc2ccccc2)C(=O)c2cccc(F)c2)cc1,13.9%
6,CC(O)C(NC(=O)OCc1ccccc1)C(=O)OCc1ccccc1 (stereo not drawn),-12.5%
7,COc1cccc(/C=C/C(=O)OCC(=O)Nc2ccc3[nH]c(=O)[nH]c3c2)c1OC,-14%
8,CCC(C)NS(=O)(=O)c1ccc(NS(C)(=O)=O)cc1 (stereo not drawn),-2.81%
9,Cc1cc2ncc(S(=O)(=O)c3ccccc3)c(N)n2n1,14.4%
10,O=C1N=C(N2CCN(c3cccc4ccccc34)CC2)S/C1=C/c1cccs1,11.9%
11,COc1cccc2c1-c1c(C(=O)O)cccc1C2=O,15.7%
12,CC1=CC(=C(C#N)C#N)C=C(C)N1CCN1CCNCC1,-3.73%
13,N#Cc1ccc(C(=O)Nc2ccc(S(=O)(=O)NC3=NCCCCC3)cc2)cc1,-1.54%
14,c1ccc2c(c1)ccc1nnc(SCc3ccc4c(c3)OCO4)n12,-3.51%
15,CSc1nc(=O)n2cc(C)ccc2n1,5.4%
16,CCOC(=O)C1CCCN(C(=O)c2cc3c(-c4cccc(OC)c4)nn(C)c3s2)C1 (stereo not drawn),-60.7%
17,N#C/C(=C\c1ccccc1)C(=O)NC1CC1,11.3%
18,COc1ccc(CNC(=O)c2ccc3c(c2)NC(=O)C(C)S3)cc1 (stereo not drawn),10.1%
19,CCOC(=O)c1sc2nc(CSc3ccccc3)nc(NCCN(C)C)c2c1C,-17.4%
20,COc1ccc(CCNC(=O)c2cc(S(=O)(=O)N(C)C)ccc2N2CCCC2)cc1,4.26%
21,COc1ccc(F)cc1CN1CCN(C(=O)CCC(=O)Nc2nnc(C3CCCCC3)s2)CC1,-6.04%
22,Cc1sc(NC(=O)c2cc(-c3ccc(Cl)cc3)nc3ccccc23)c(C(N)=O)c1C,5.31%

row,SMILES,"hERG current change (%, negative = inhibition) at 10uM"
1,Cc1ccc(C)c(C(=O)N2CCC(n3nccc3NC(=O)C3CC3)CC2)c1,-0.405%
2,CC(C)(C)c1csc(CS(=O)(=O)c2ccccn2)n1,-6.8%
3,COc1cccc(N=C2SC(C(=O)Nc3ccc(F)cc3)CC(=O)N2C)c1 (stereo not drawn),-11%
4,O=C1CC(c2ccccc2)CC(O)=C1C=NCc1ccc(Cl)c(Cl)c1 (stereo not drawn),-3.59%
5,Cc1ccc(C(=O)Nc2ccc3c(c2)OCO3)cc1NC(=O)c1ccco1,-20.8%
6,O=C(NC(=S)Nc1ccc(N2CCOCC2)c(Cl)c1)c1sc2ccccc2c1Cl,-1.86%
7,Cl.OC(COCC1COc2ccccc2O1)CN1CCc2ccccc2C1 (stereo not drawn),-64.9%
8,COc1cc2c(cc1OC)C(C)N(CC(=O)Nc1ccc(C)c(S(=O)(=O)N3CCOCC3)c1)CC2 (stereo not drawn),-13.2%
9,COCCn1c(SCC(=O)NNC(=O)c2ccc(OC)c(OC)c2)nc2ccccc2c1=O,-42.2%
10,Cl.OC(COc1ccc2ccccc2c1)CN1CCOCC1 (stereo not drawn),-8.29%
11,COCc1cc(C)nc(OCC(=O)N/N=C/c2ccc(C)cc2)c1C#N,10.9%
12,CN(Cc1ccccc1)S(=O)(=O)c1ccc(OCC(=O)N2CCC(C(N)=O)CC2)cc1,-2.99%
13,Cc1cc(-c2c(C)[nH]n(-c3ccccc3)c2=O)n(-c2ccccc2)n1,2.87%
14,Cc1ccc(/C=C2\SC(=S)N(CCCC(=O)N3CCOCC3)C2=O)cc1,-7.81%
15,COc1ccc(S(=O)(=O)CCC(=O)NCCc2cccc(C)c2)cc1,-26%
16,CC(=O)c1cccc(NC(=S)NC(=O)c2cccc(Cl)c2)c1,-3.58%
17,COc1ccc(-c2csc3ncn(Cc4ccccc4)c(=O)c23)cc1,-0.922%
18,CCc1ccc(N2C(=O)NC(=O)C(Cc3ccc(OC)cc3OC)C2=O)cc1 (stereo not drawn),22%
19,Cc1ccc(C)n1-c1sc2c(c1C(=O)O)CCCC2,18.7%
20,O=C(NCc1ccc(Cl)cc1)C1CCN(c2nnc(N3CCCC3=O)s2)CC1,5.6%
21,COc1cc(CN2CCCC(CO)(Cc3ccccc3C)C2)cc2c1OCO2 (stereo not drawn),-27.9%
